Experimental data taken from the supplement of paper PMC11246515.
± gives the standard deviation of the averaged measurements.

Test: total protein half-life in vivo (active degradation + dilution); higher = more stable protein
[1] = E. coli NCM3722 delta-clpP delta-lon delta-hslV, growth: N-lim chemostat, doubling time 6 h
[2] = E. coli NCM3722 delta-lon, growth: N-lim chemostat, doubling time 6 h
[3] = E. coli NCM3722 delta-clpP, growth: N-lim chemostat, doubling time 6 h
[4] = E. coli NCM3722 delta-smpB, growth: N-lim chemostat, doubling time 6 h
[5] = wild type E. coli NCM3722, growth: C-lim chemostat, doubling time 3 h
[6] = wild type E. coli NCM3722, growth: C-lim chemostat, doubling time 6 h
[7] = wild type E. coli NCM3722, growth: C-lim chemostat, doubling time 12 h
[8] = E. coli NCM3722 delta-hslV, growth: N-lim chemostat, doubling time 6 h
[9] = wild type E. coli NCM3722, growth: N-lim chemostat, doubling time 6 h
[10] = wild type E. coli NCM3722, growth: N-lim chemostat, doubling time 12 h
[11] = wild type E. coli NCM3722, growth: P-lim chemostat, doubling time 6 h
[12] = wild type E. coli NCM3722, growth: P-lim chemostat, doubling time 12 h

Row | Sequence | total protein half-life in vivo [1] [h] | total protein half-life in vivo [2] [h] | total protein half-life in vivo [3] [h] | total protein half-life in vivo [4] [h] | total protein half-life in vivo [5] [h] | total protein half-life in vivo [6] [h] | total protein half-life in vivo [7] [h] | total protein half-life in vivo [8] [h] | total protein half-life in vivo [9] [h] | total protein half-life in vivo [10] [h] | total protein half-life in vivo [11] [h] | total protein half-life in vivo [12] [h]
1 | MAQLSLQHIQKIYDNQVHVVKDFNLEIADKEFIVFVGPSGCGKSTTLRMIAGLEEISGGDLLIDGKRMNDVPAKARNIAMVFQNYALYPHMTVYDNMAFGLKMQKIAKEVIDERVNWAAQILGLREYLKRKPGALSGGQRQRVALGRAIVREAGVFLMDEPLSNLDAKLRVQMRAEISKLHQKLNTTMIYVTHDQTEAMTMATRIVIMKDGIVQQVGAPKTVYNQPANMFVSGFIGSPAMNFIRGTIDGDKFVTETLKLTIPEEKLAVLKTQESLHKPIVMGIRPEDIHPDAQEENNISAKISVAELTGAEFMLYTTVGGHELVVRAGALNDYHAGENITIHFDMTKCHFFDAETEIAIR | 4.89 ± 1.6 | 3.29 |  |  |  |  |  |  |  |  |  | 
2 | MINRIRVVTLLVMVLGVFALLQLISGSLFFSSLHHSQKSFVVSNQLREQQGELTSTWDLMLQTRINLSRSAVRMMMDSSNQQSNAKVELLDSARKTLAQAATHYKKFKSMAPLPEMVATSRNIDEKYKNYYTALTELIDYLDYGNTGAYFAQPTQGMQNAMGEAFAQYALSSEKLYRDIVTDNADDYRFAQWQLAVIALVVVLILLVAWYGIRRMLLTPLAKIIAHIREIAGGNLANTLTIDGRSEMGDLAQSVSHMQRSLTDTVTHVREGSDAIYAGTREIAAGNTDLSSRTEQQASALEETAASMEQLTATVKQNADNARQASQLAQSASDTAQHGGKVVDGVVKTMHEIADSSKKIADIISVIDGIAFQTNILALNAAVEAARAGEQGRGFAVVAGEVRNLASRSAQAAKEIKALIEDSVSRVDTGSVLVESAGETMNNIVNAVTRVTDIMGEIASASDEQSRGIDQVALAVSEMDRVTQQNASLVQESAAAAAALEEQASRLTQAVSAFRLAASPLTNKPQTPSRPASEQPPAQPRLRIAEQDPNWETF |  |  | 7.08 | > 8 | 2.39 ± 0.025 | 4.03 ± 0.12 | 5.81 ± 0.27 |  |  |  |  | 
3 | MKRMLINATQQEELRVALVDGQRLYDLDIESPGHEQKKANIYKGKITRIEPSLEAAFVDYGAERHGFLPLKEIAREYFPANYSAHGRPNIKDVLREGQEVIVQIDKEERGNKGAALTTFISLAGSYLVLMPNNPRAGGISRRIEGDDRTELKEALASLELPEGMGLIVRTAGVGKSAEALQWDLSFRLKHWEAIKKAAESRPAPFLIHQESNVIVRAFRDYLRQDIGEILIDNPKVLELARQHIAALGRPDFSSKIKLYTGEIPLFSHYQIESQIESAFQREVRLPSGGSIVIDSTEALTAIDINSARATRGGDIEETAFNTNLEAADEIARQLRLRDLGGLIVIDFIDMTPVRHQRAVENRLREAVRQDRARIQISHISRFGLLEMSRQRLSPSLGESSHHVCPRCSGTGTVRDNESLSLSILRLIEEEALKENTQEVHAIVPVPIASYLLNEKRSAVNAIETRQDGVRCVIVPNDQMETPHYHVLRVRKGEETPTLSYMLPKLHEEAMALPSEEEFAERKRPEQPALATFAMPDVPPAPTPAEPAAPVVAPAPKAAPATPAAPAQPGLLSRFFGALKALFSGGEETKPTEQPAPKAEAKPERQQDRRKPRQNNRRDRNERRDTRSERTEGSDNREENRRNRRQAQQQTAETRESRQQAEVTEKARTADEQQAPRRERSRRRNDDKRQAQQEAKALNVEEQSVQETEQEERVRPVQPRRKQRQLNQKVRYEQSVAEEAVVAPVVEETVAAEPIVQEAPAPRTELVKVPLPVVAQTAPEQQEENNADNRDNGGMPRRSRRSPRHLRVSGQRRRRYRDERYPTQSPMPLTVACASPELASGKVWIRYPIVRPQDVQVEEQREQEEVHVQPMVTEVPVAAAIEPVVSAPVVEEVAGVVEAPVQVAEPQPEVVETTHPEVIAAAVTEQPQVITESDVAVAQEVAEQAEPVVEPQEETADIEEVVETAEVVVAEPEVVAQPAAPVVAEVAAEVETVAAVEPEVTVEHNHATAPMTRAPAPEYVPEAPRHSDWQRPTFAFEGKGAAGGHTATHHASAAPARPQPVE | 6.39 ± 0.14 | 5.65 ± 0.2 | 6.74 ± 1.4 | 4.9 ± 0.26 | 2.91 ± 0.021 | 5.69 ± 0.2 | 10 ± 0.74 | 5.1 ± 0.47 | 5.181 ± 0.0083 | 8.68 ± 0.14 | 5.532 ± 0.034 | 10.8 ± 0.21
4 | MPKYRSATTTHGRNMAGARALWRATGMTDADFGKPIIAVVNSFTQFVPGHVHLRDLGKLVAEQIEAAGGVAKEFNTIAVDDGIAMGHGGMLYSLPSRELIADSVEYMVNAHCADAMVCISNCDKITPGMLMASLRLNIPVIFVSGGPMEAGKTKLSDQIIKLDLVDAMIQGADPKVSDSQSDQVERSACPTCGSCSGMFTANSMNCLTEALGLSQPGNGSLLATHADRKQLFLNAGKRIVELTKRYYEQNDESALPRNIASKAAFENAMTLDIAMGGSTNTVLHLLAAAQEAEIDFTMSDIDKLSRKVPQLCKVAPSTQKYHMEDVHRAGGVIGILGELDRAGLLNRDVKNVLGLTLPQTLEQYDVMLTQDDAVKNMFRAGPAGIRTTQAFSQDCRWDTLDDDRANGCIRSLEHAYSKDGGLAVLYGNFAENGCIVKTAGVDDSILKFTGPAKVYESQDDAVEAILGGKVVAGDVVVIRYEGPKGGPGMQEMLYPTSFLKSMGLGKACALITDGRFSGGTSGLSIGHVSPEAASGGSIGLIEDGDLIAIDIPNRGIQLQVSDAELAARREAQDARGDKAWTPKNRERQVSFALRAYASLATSADKGAVRDKSKLGG | 4.39 ± 0.68 | 4.07 ± 0.3 | 3.61 ± 0.41 | 3.89 ± 0.054 | 3.1 ± 0.11 | 5.31 ± 0.14 | 9.43 ± 1.9 | 3.83 ± 0.13 | 3.833 ± 0.034 | 5.72 ± 0.095 | 5.714 ± 0.0088 | 10.9 ± 0.4
5 | MRIILLGAPGAGKGTQAQFIMEKYGIPQISTGDMLRAAVKSGSELGKQAKDIMDAGKLVTDELVIALVKERIAQEDCRNGFLLDGFPRTIPQADAMKEAGINVDYVLEFDVPDELIVDRIVGRRVHAPSGRVYHVKFNPPKVEGKDDVTGEELTTRKDDQEETVRKRLVEYHQMTAPLIGYYSKEAEAGNTKYAKVDGTKPVAEVRADLEKILG | 5.01 ± 0.068 | 5.64 ± 0.34 | 5.08 ± 0.33 | 4.61 ± 0.41 | 3.13 ± 0.17 | 6.18 ± 0.47 | 11.3 ± 0.76 | 5.24 ± 0.55 | 4.73 ± 0.35 | 8.562 ± 0.056 | 5.6 ± 0.35 | 12.3 ± 0.84
6 | MRTEYCGQLRLSHVGQQVTLCGWVNRRRDLGSLIFIDMRDREGIVQVFFDPDRADALKLASELRNEFCIQVTGTVRARDEKNINRDMATGEIEVLASSLTIINRADVLPLDSNHVNTEEARLKYRYLDLRRPEMAQRLKTRAKITSLVRRFMDDHGFLDIETPMLTKATPEGARDYLVPSRVHKGKFYALPQSPQLFKQLLMMSGFDRYYQIVKCFRDEDLRADRQPEFTQIDVETSFMTAPQVREVMEALVRHLWLEVKGVDLGDFPVMTFAEAERRYGSDKPDLRNPMELTDVADLLKSVEFAVFAGPANDPKGRVAALRVPGGASLTRKQIDEYGNFVKIYGAKGLAYIKVNERAKGLEGINSPVAKFLNAEIIEDILDRTAAQDGDMIFFGADNKKIVADAMGALRLKVGKDLGLTDESKWAPLWVIDFPMFEDDGEGGLTAMHHPFTSPKDMTAAELKAAPENAVANAYDMVINGYEVGGGSVRIHNGDMQQTVFGILGINEEEQREKFGFLLDALKYGTPPHAGLAFGLDRLTMLLTGTDNIRDVIAFPKTTAAACLMTEAPSFANPTALAELSIQVVKKAENN | 6 ± 0.099 | 5.41 ± 0.68 | 5.45 ± 0.059 | 5.358 ± 0.01 | 3.04 ± 0.18 | 5.909 ± 0.023 | 12.2 ± 2.5 | 5.342 ± 0.032 | 5.2 ± 0.1 | 11.4 ± 3.1 | 6.227 ± 0.049 | 11.8 ± 0.74
7 | MTDKRKDGSGKLLYCSFCGKSQHEVRKLIAGPSVYICDECVDLCNDIIREEIKEVAPHRERSALPTPHEIRNHLDDYVIGQEQAKKVLAVAVYNHYKRLRNGDTSNGVELGKSNILLIGPTGSGKTLLAETLARLLDVPFTMADATTLTEAGYVGEDVENIIQKLLQKCDYDVQKAQRGIVYIDEIDKISRKSDNPSITRDVSGEGVQQALLKLIEGTVAAVPPQGGRKHPQQEFLQVDTSKILFICGGAFAGLDKVISHRVETGSGIGFGATVKAKSDKASEGELLAQVEPEDLIKFGLIPEFIGRLPVVATLNELSEEALIQILKEPKNALTKQYQALFNLEGVDLEFRDEALDAIAKKAMARKTGARGLRSIVEAALLDTMYDLPSMEDVEKVVIDESVIDGQSKPLLIYGKPEAQQASGE [P0A6H1] | 5.964 ± 0.055 | 1.491 ± 0.0088 | 5.09 ± 0.56 | 1.387 ± 0.0025 | 1.47 ± 0.017 | 2.02 ± 0.24 | 2.24 ± 0.37 | 1.47 ± 0.087 | 1.63 ± 0.065 | 1.96 ± 0.22 | 2.11 ± 0.12 | 3.36 ± 0.35
